Test results published in PMC10668032.
The list shows a part of the results. At the low end of the ranking the order means little.

target: SIX1 homeodomain (reference allele) (UniProt Q15475); test: universal protein binding microarray; details: Universal all-10-mer PBM (8x60K, AMADID 030236), 300 nM GST-tagged protein, Alexa Fluor 488 anti-GST; buffer, salt, pH and temperature not stated; high values mean tight binding; most listed sequences are background and not binding sites; double strand, one strand shown

| Sequence | binding signal [E-score] |
| --- | --- |
| GCCCAGAA | -0.254 |
| CATCTCGG | 0.171 |
| CGCGTAAC | -0.205 |
| CAACGACG | -0.194 |
| CGTTTGTC | 0.0311 |
| AGCTGATC | 0.316 |
| CGTGTCAA | 0.0118 |
| TGAGGGCA | -0.126 |
| ACGTAAGC | -0.181 |
| CCGTCTCA | 0.268 |
| GATGTGGA | 0.112 |
| TGCCTACA | -0.0396 |
| ACAATTTC | -0.106 |
| AGCTCTAC | -0.0856 |
| ACTGCCAT | -0.1 |
| CAATAAAA | -0.127 |
| ACAGCCGG | -0.0271 |
| CTTAGCTA | -0.107 |
| ACTGGCGC | -0.0662 |
| GGCCAGCC | -0.27 |
| ATATCGCG | 0.422 |
| TACGATAA | 0.175 |
| AAGCAAAC | -0.17 |
| GATTGACA | -0.12 |
| CCCGACGG | -0.101 |

| Sequence | binding signal [E-score] |
| --- | --- |
| AGGTAATA | 0.0875 |
| ATTTGATA | 0.397 |
| CCCAGACA | -0.00105 |
| GTCTTCAC | -0.144 |
| CGGGCTGA | 0.0256 |
| ACGTTTGA | 0.0327 |
| AAACACCA | 0.091 |
| CGGTCTCC | 0.0474 |
| AGGATGCG | 0.0523 |
| GTTCGGGA | 0.0573 |
| ACTCTGCA | 0.0202 |
| CCGGATAC | 0.441 |
| GGCGGAAC | -0.318 |
| AGGGGCAG | -0.0274 |
| AACCCACC | 0.0531 |
| ACCGCCGC | 0.0253 |
| CGCATAAG | -0.143 |
| CCTTTGAG | -0.0717 |
| GCGAAGGA | -0.0644 |
| GTTCAAAC | -0.138 |
| CGTTACGC | -0.239 |
| TAATGTAA | 0.031 |
| GACGGTAA | -0.0895 |
| CATCTAAA | -0.00811 |
| GTGCCACA | -0.151 |

| Sequence | binding signal [E-score] |
| --- | --- |
| CTAAAAAC | -0.172 |
| CGTTAGTC | -0.124 |
| AGTAGACG | 0.114 |
| ATAAGGCA | 0.0508 |
| CACGCACC | -0.167 |
| ATTATGGG | 0.144 |
| AATTAAAA | -0.229 |
| ATTTGCTA | -0.185 |
| CACATCAC | -0.0514 |
| TGCCTCAA | -0.0664 |
| GCGTAGCA | -0.0942 |
| CGGTACAC | 0.138 |
| TTGTACAA | -0.27 |
| CCACATGA | 0.00388 |
| GCCGTATA | 0.283 |
| AGCGTTAT | -0.0413 |
| GCATGTTA | -0.178 |
| ACCCGGGT | 0.377 |
| ACTTCTAA | -0.206 |
| AAAAATAG | -0.215 |
| CAACATGG | 0.0785 |
| TTGTAAAA | -0.208 |
| GTATAGCA | 0.156 |
| ATATTTAC | 0.142 |
| CTAAGCAA | -0.24 |

| Sequence | binding signal [E-score] |
| --- | --- |
| CGCGCCGA | -0.0268 |
| ACACGAGT | 0.0536 |
| GAATAGCC | -0.0103 |
| TCCTGCAA | 0.0123 |
| GCGCGAAA | -0.105 |
| CTTCGGGC | 0.00522 |
| GCCAGTCC | -0.129 |
| AACATCAA | -0.237 |
| AGACTACA | -0.0342 |
| ATAGGGTC | 0.146 |
| AACTAATC | 0.124 |
| AGCAAGTG | -0.0967 |
| ACACGTTG | -0.157 |
| GAAAATCA | -0.127 |
| CGAGTCAC | -0.115 |
| GATTCTTA | -0.0677 |
| CGAGCCAA | -0.149 |
| ACACGATC | 0.266 |
| CCCCTTCC | 0.164 |
| CTTATCAC | 0.0821 |
| ACATTGAG | -0.157 |
| ATCTGAAA | 0.0773 |
| CCGCTTCA | 0.133 |
| GAATCTGC | 0.0609 |
| ACCTTTTG | -0.064 |

| Sequence | binding signal [E-score] |
| --- | --- |
| TAACGAGA | -0.0272 |
| CCCCAGCA | 0.0232 |
| CAACTAGG | -0.119 |
| CCACTTAC | 0.056 |
| CTACTAAG | -0.119 |
| ACGGATGG | 0.114 |
| ACTTCTCA | -0.00893 |
| CGAGTACA | 0.0544 |
| TCCTGAAA | -0.106 |
| AACCGTCA | -0.0989 |
| CTCCAAAA | -0.224 |
| CCCAACCC | 0.00262 |
| CCTCACTA | -0.00442 |
| TGGCGGAA | -0.149 |
| CAGGTGAC | -0.0701 |
| AGGTAACC | 0.0488 |
| AAAAGATT | -0.119 |
| AGACCACT | -0.0453 |
| ATTCAGGG | 0.0344 |
| TCTGAGCA | -0.139 |
| AGACGAGC | -0.0872 |
| AAAATAGA | 0.127 |
| TCCGGTCA | -0.0102 |
| CCGGTGAG | -0.0169 |
| TATTCCCA | 0.0336 |

| Sequence | binding signal [E-score] |
| --- | --- |
| CAGCCATG | -0.0733 |
| CGGAAGCA | -0.101 |
| GAGCAAAC | -0.141 |
| AACAGATA | 0.211 |
| TCGAACAA | -0.0327 |
| CTTCTACC | 0.0973 |
| AACGATCC | 0.333 |
| GCGGTAGA | 0.0037 |
| ATACCCAT | 0.393 |
| ACAGTAAT | -0.0293 |
| CGTGCGAA | -0.134 |
| GATCGTTA | 0.198 |
| CGGGGGAC | -0.164 |
| CTAAACGA | -0.0987 |
| ACCCACAT | 0.0266 |
| TGACCAAA | -0.214 |
| TGAAGGCA | -0.0804 |
| CCCTAGAC | -0.0168 |
| AAGTATAG | -0.016 |
| CGCCAAGC | -0.133 |
| ATCTGCTG | 0.199 |
| AACACCTC | 0.218 |
| ACGCTAGC | -0.201 |
| GGGCGAAA | -0.0965 |
| AATATATG | 0.275 |

| Sequence | binding signal [E-score] |
| --- | --- |
| CGTTCACC | -0.158 |
| CCGTCATC | 0.0912 |
| AGTCTCCG | -0.121 |
| CAATGTGG | -0.0168 |
| CCCTTAGC | -0.0694 |
| CGTTGACA | -0.115 |
| CATAACTC | -0.246 |
| CATCTTCC | 0.0767 |
| CATGAAGC | -0.253 |
| TAGAGAGA | -0.0286 |
| AAATCTAT | -0.0976 |
| ATGTCTGC | -0.228 |
| CGGAGGGA | 0.119 |
| ATGAGTTC | -0.0852 |
| GCTCTTCC | 0.0238 |
| AGTATCTA | 0.347 |
| ATCGTCCA | 0.0525 |
| CCGAGAAA | -0.182 |
| CGACTGGA | 0.0801 |
| CCACTGGG | -0.19 |
| TCTTCTAA | 0.0479 |
| CAACCGCA | -0.111 |
| AAACGACC | -0.0881 |
| GGAGGAAC | -0.241 |
| AAACCGGG | 0.00689 |

| Sequence | binding signal [E-score] |
| --- | --- |
| ACGGGATA | 0.376 |
| TAATGTGA | 0.079 |
| ACGGCGAC | -0.146 |
| GCTATAGA | -0.11 |
| AAAACCCC | -0.0903 |
| CCTAGAAG | 0.0886 |
| AGTCTCAA | -0.0444 |
| GGGAGCGA | -0.112 |
| CACGAGAG | -0.0634 |
| GGGGCTCA | 0.167 |
| CCTACTAG | -0.0519 |
| AGGTCTCA | 0.226 |
| GTCTATCA | 0.00211 |
| CTCCGTCA | -0.122 |
| GGAGTTAC | -0.0523 |
| GTAGGGTA | 0.204 |
| ACGGGCCC | -0.191 |
| ACAACCTA | -0.0656 |
| AGGGCTAT | 0.202 |
| AGCTAGAG | -0.111 |
| ACCAGCGC | -0.242 |
| TCATCCAA | 0.128 |
| ACGAGAGG | -0.03 |
| AACCTTAA | -0.126 |
| ACGCTGCA | -0.189 |

| Sequence | binding signal [E-score] |
| --- | --- |
| CATCCTAA | 0.0655 |
| CGCAACTA | -0.12 |
| AGTCTGGA | -0.13 |
| GCATAAGA | 0.046 |
| GATTACAC | 0.164 |
| TGACGGCA | -0.123 |
| TCGTCAGA | 0.00131 |
| TCCAGTCA | -0.108 |
| GCGCGGGA | -0.101 |
| GAGACGGA | 0.272 |
| TAGGGGAA | 0.02 |
| ATCTCCCG | 0.222 |
| AAGGTGAC | 0.0801 |
| CGTACCGA | 0.0466 |
| ACACGCCC | 0.0677 |
| CCAAACTC | -0.131 |
| AGCTCGGG | 0.0533 |
| CACCCCGA | 0.26 |
| ATCAACGG | 0.102 |
